# This is one part of the list.
# Assays:
# Assay in all cases: glycan array binding signal (z-score within array); higher = stronger binding
# Settings in all cases: glycan notation: IUPAC condensed, linker removed
# [1] = biological target: Gal3S(b1-3)[Fuc(a1-4)]GlcNAc
# Procedure, shortened: (§1)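 Glycan array data came from 3228 arrays in the Consortium for Functional Glycomics database, and only arrays with an available protein sequence were kept. Glycan names were put into IUPAC-condensed notation, and columns mapping to the same glycan were averaged. The binding signal is a within-array Z-score, averaged across arrays of one protein sequence run at different concentrations or buffers and across linkers. A negative Z-score can be read as non-binding.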
# Gal3S(b1-4)Glc = biological target: Gal3S(b1-4)Glc
# Procedure, shortened: as §1
# Gal3S(b1-4)Glc6S = biological target: Gal3S(b1-4)Glc6S
# Procedure, shortened: as §1
# Gal3S(b1-4)GlcNAc = biological target: Gal3S(b1-4)GlcNAc
# Procedure, shortened: as §1
# [2] = biological target: Gal3S(b1-4)[Fuc(a1-3)]Glc6S
# Procedure, shortened: as §1
# [3] = biological target: Gal3S(b1-4)[Fuc(a1-3)]GlcNAc
# Procedure, shortened: as §1
# [4] = biological target: Gal3S(b1-4)[Fuc(a1-3)]GlcNAc6S
# Procedure, shortened: as §1
# Gal3S4S(b1-4)GlcNAc = biological target: Gal3S4S(b1-4)GlcNAc
# Procedure, shortened: as §1
# Gal3S6S(b1-4)GlcNAc = biological target: Gal3S6S(b1-4)GlcNAc
# Procedure, shortened: as §1
# Gal3S6S(b1-4)GlcNAc6S = biological target: Gal3S6S(b1-4)GlcNAc6S
# Procedure, shortened: as §1
# Gal4S(b1-4)GlcNAc = biological target: Gal4S(b1-4)GlcNAc
# Procedure, shortened: as §1
# Gal4S6S(b1-4)GlcNAc = biological target: Gal4S6S(b1-4)GlcNAc
# Procedure, shortened: as §1
# Gal6P(b1-4)GlcNAc = biological target: Gal6P(b1-4)GlcNAc
# Procedure, shortened: as §1
# Gal6S(b1-3)GlcNAc = biological target: Gal6S(b1-3)GlcNAc
# Procedure, shortened: as §1
# Gal6S(b1-3)GlcNAc6S = biological target: Gal6S(b1-3)GlcNAc6S
# Procedure, shortened: as §1
# Gal6S(b1-4)Glc = biological target: Gal6S(b1-4)Glc
# Procedure, shortened: as §1
# Gal6S(b1-4)Glc6S = biological target: Gal6S(b1-4)Glc6S
# Procedure, shortened: as §1
# Gal6S(b1-4)GlcNAc = biological target: Gal6S(b1-4)GlcNAc
# Procedure, shortened: as §1
# Gal6S(b1-4)GlcNAc6S = biological target: Gal6S(b1-4)GlcNAc6S
# Procedure, shortened: as §1
# GalNAc(a1-3)Gal = biological target: GalNAc(a1-3)Gal
# Procedure, shortened: as §1
# GalNAc(a1-3)GalNAc = biological target: GalNAc(a1-3)GalNAc
# Procedure, shortened: as §1
# [5] = biological target: GalNAc(a1-3)GalNAc(b1-3)Gal(a1-4)Gal(b1-4)Glc
# Procedure, shortened: as §1
# [6] = biological target: GalNAc(a1-3)GalNAc(b1-3)Gal(a1-4)Gal(b1-4)GlcNAc
# Procedure, shortened: as §1
# GalNAc(b1-3)Gal = biological target: GalNAc(b1-3)Gal
# Procedure, shortened: as §1
# [7] = biological target: GalNAc(b1-3)Gal(a1-4)Gal(b1-4)GlcNAc
# Procedure, shortened: as §1
# [8] = biological target: GalNAc(b1-3)Gal(a1-4)Gal(b1-4)GlcNAc(b1-3)Gal(b1-4)Glc
# Procedure, shortened: as §1
# [9] = biological target: GalNAc(b1-3)Gal(a1-6)Gal(b1-4)Glc
# Procedure, shortened: as §1
# GalNAc(b1-3)GalNAc = biological target: GalNAc(b1-3)GalNAc
# Procedure, shortened: as §1
# GalNAc(b1-3)GlcNAc = biological target: GalNAc(b1-3)GlcNAc
# Procedure, shortened: as §1
# GalNAc(b1-4)Gal(b1-4)Glc = biological target: GalNAc(b1-4)Gal(b1-4)Glc
# Procedure, shortened: as §1
# GalNAc(b1-4)GlcNAc = biological target: GalNAc(b1-4)GlcNAc
# Procedure, shortened: as §1
# [10] = biological target: GalNAc(b1-4)GlcNAc(b1-2)Man
# Procedure, shortened: as §1
# [11] = biological target: GalNAc(b1-4)GlcNAc(b1-2)Man(a1-3)[GalNAc(b1-4)GlcNAc(b1-2)Man(a1-6)]Man(b1-4)GlcNAc(b1-4)GlcNAc
# Procedure, shortened: as §1
# [12] = biological target: GalNAc(b1-4)GlcNAc(b1-3)GalNAc(b1-4)GlcNAc
# Procedure, shortened: as §1
# GalNAc(b1-4)GlcNAc6S = biological target: GalNAc(b1-4)GlcNAc6S
# Procedure, shortened: as §1
# GalNAc(b1-6)GalNAc = biological target: GalNAc(b1-6)GalNAc
# Procedure, shortened: as §1
# GalNAc3S(b1-4)GlcNAc = biological target: GalNAc3S(b1-4)GlcNAc
# Procedure, shortened: as §1
# GalNAc3S(b1-4)GlcNAc3S = biological target: GalNAc3S(b1-4)GlcNAc3S
# Procedure, shortened: as §1
# [13] = biological target: GalNAc3S(b1-4)[Fuc(a1-3)]GlcNAc
# Procedure, shortened: as §1
# GalNAc4S6S(b1-4)GlcNAc = biological target: GalNAc4S6S(b1-4)GlcNAc
# Procedure, shortened: as §1
# GalNAc6S(b1-4)GlcNAc = biological target: GalNAc6S(b1-4)GlcNAc
# Procedure, shortened: as §1
# Glc(a1-4)Glc = biological target: Glc(a1-4)Glc
# Procedure, shortened: as §1
# [14] = biological target: Glc(a1-4)Glc(a1-4)Glc(a1-4)Glc
# Procedure, shortened: as §1
# Glc(a1-6)Glc(a1-6)Glc = biological target: Glc(a1-6)Glc(a1-6)Glc
# Procedure, shortened: as §1
# [15] = biological target: Glc(a1-6)Glc(a1-6)Glc(a1-6)Glc
# Procedure, shortened: as §1
binder,measurement,setting,value
"Dectin2 (Homo sapiens), Q6EIG7 (protein) MMQEQQPQSTEKRGWLSLRLWSVAGISIALLSACFIVSCVVTYHFTYGETGKRLSELHSYHSSLTCFSEGTKVPAWGCCPASWKSFGSSCYFISSEEKVWSKSEQNCVEMGAHLVVFNTEAEQNFIVQQLNESFSYFLGLSDPQGNNNWQWIDKTPYEKNVRFWHLGEPNHSAEQCASIVFWKPTGWGWNDVICETRRNSICEMNKIYL",glycan array binding signal (z-score),[1],-0.072
same,glycan array binding signal (z-score),Gal3S(b1-4)Glc,-0.104
same,glycan array binding signal (z-score),Gal3S(b1-4)Glc6S,-0.135
same,glycan array binding signal (z-score),Gal3S(b1-4)GlcNAc,-0.121
same,glycan array binding signal (z-score),[2],-0.029
same,glycan array binding signal (z-score),[3],-0.172
same,glycan array binding signal (z-score),[4],-0.137
same,glycan array binding signal (z-score),Gal3S4S(b1-4)GlcNAc,-0.17
same,glycan array binding signal (z-score),Gal3S6S(b1-4)GlcNAc,-0.156
same,glycan array binding signal (z-score),Gal3S6S(b1-4)GlcNAc6S,-0.153
same,glycan array binding signal (z-score),Gal4S(b1-4)GlcNAc,-0.145
same,glycan array binding signal (z-score),Gal4S6S(b1-4)GlcNAc,-0.186
same,glycan array binding signal (z-score),Gal6P(b1-4)GlcNAc,-0.199
same,glycan array binding signal (z-score),Gal6S(b1-3)GlcNAc,-0.194
same,glycan array binding signal (z-score),Gal6S(b1-3)GlcNAc6S,-0.141
same,glycan array binding signal (z-score),Gal6S(b1-4)Glc,-0.141
same,glycan array binding signal (z-score),Gal6S(b1-4)Glc6S,-0.114
same,glycan array binding signal (z-score),Gal6S(b1-4)GlcNAc,-0.192
same,glycan array binding signal (z-score),Gal6S(b1-4)GlcNAc6S,-0.157
same,glycan array binding signal (z-score),GalNAc(a1-3)Gal,-0.162
same,glycan array binding signal (z-score),GalNAc(a1-3)GalNAc,-0.156
same,glycan array binding signal (z-score),[5],-0.213
same,glycan array binding signal (z-score),[6],-0.202
same,glycan array binding signal (z-score),GalNAc(b1-3)Gal,-0.117
same,glycan array binding signal (z-score),[7],-0.131
same,glycan array binding signal (z-score),[8],-0.193
same,glycan array binding signal (z-score),[9],-0.176
same,glycan array binding signal (z-score),GalNAc(b1-3)GalNAc,-0.17
same,glycan array binding signal (z-score),GalNAc(b1-3)GlcNAc,-0.18
same,glycan array binding signal (z-score),GalNAc(b1-4)Gal(b1-4)Glc,-0.142
same,glycan array binding signal (z-score),GalNAc(b1-4)GlcNAc,-0.143
same,glycan array binding signal (z-score),[10],-0.17
same,glycan array binding signal (z-score),[11],-0.102
same,glycan array binding signal (z-score),[12],0.128
same,glycan array binding signal (z-score),GalNAc(b1-4)GlcNAc6S,-0.198
same,glycan array binding signal (z-score),GalNAc(b1-6)GalNAc,-0.189
same,glycan array binding signal (z-score),GalNAc3S(b1-4)GlcNAc,-0.176
same,glycan array binding signal (z-score),GalNAc3S(b1-4)GlcNAc3S,-0.173
same,glycan array binding signal (z-score),[13],-0.154
same,glycan array binding signal (z-score),GalNAc4S6S(b1-4)GlcNAc,-0.182
same,glycan array binding signal (z-score),GalNAc6S(b1-4)GlcNAc,-0.215
same,glycan array binding signal (z-score),Glc(a1-4)Glc,-0.093
same,glycan array binding signal (z-score),[14],-0.164
same,glycan array binding signal (z-score),Glc(a1-6)Glc(a1-6)Glc,-0.15
same,glycan array binding signal (z-score),[15],-0.131
